Experimental data from article PMC4336329 (PLoS ONE, 2015).
Among all 310,000 compounds or so, about 14,000 (4.5%) showed an effect of 50% or more. Effects have a minus sign here. Some of the results follow.

target: human ether-à-go-go-related gene (hERG) potassium channel (human, UniProt Q12809); test: primary screen, population patch clamp on CHO cells stably expressing hERG
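Note: peak tail current of the secondary pulse compared with the same well before compound.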

Chain of human ether-à-go-go-related gene (hERG) potassium channel (Q12809 whole entry, looked up): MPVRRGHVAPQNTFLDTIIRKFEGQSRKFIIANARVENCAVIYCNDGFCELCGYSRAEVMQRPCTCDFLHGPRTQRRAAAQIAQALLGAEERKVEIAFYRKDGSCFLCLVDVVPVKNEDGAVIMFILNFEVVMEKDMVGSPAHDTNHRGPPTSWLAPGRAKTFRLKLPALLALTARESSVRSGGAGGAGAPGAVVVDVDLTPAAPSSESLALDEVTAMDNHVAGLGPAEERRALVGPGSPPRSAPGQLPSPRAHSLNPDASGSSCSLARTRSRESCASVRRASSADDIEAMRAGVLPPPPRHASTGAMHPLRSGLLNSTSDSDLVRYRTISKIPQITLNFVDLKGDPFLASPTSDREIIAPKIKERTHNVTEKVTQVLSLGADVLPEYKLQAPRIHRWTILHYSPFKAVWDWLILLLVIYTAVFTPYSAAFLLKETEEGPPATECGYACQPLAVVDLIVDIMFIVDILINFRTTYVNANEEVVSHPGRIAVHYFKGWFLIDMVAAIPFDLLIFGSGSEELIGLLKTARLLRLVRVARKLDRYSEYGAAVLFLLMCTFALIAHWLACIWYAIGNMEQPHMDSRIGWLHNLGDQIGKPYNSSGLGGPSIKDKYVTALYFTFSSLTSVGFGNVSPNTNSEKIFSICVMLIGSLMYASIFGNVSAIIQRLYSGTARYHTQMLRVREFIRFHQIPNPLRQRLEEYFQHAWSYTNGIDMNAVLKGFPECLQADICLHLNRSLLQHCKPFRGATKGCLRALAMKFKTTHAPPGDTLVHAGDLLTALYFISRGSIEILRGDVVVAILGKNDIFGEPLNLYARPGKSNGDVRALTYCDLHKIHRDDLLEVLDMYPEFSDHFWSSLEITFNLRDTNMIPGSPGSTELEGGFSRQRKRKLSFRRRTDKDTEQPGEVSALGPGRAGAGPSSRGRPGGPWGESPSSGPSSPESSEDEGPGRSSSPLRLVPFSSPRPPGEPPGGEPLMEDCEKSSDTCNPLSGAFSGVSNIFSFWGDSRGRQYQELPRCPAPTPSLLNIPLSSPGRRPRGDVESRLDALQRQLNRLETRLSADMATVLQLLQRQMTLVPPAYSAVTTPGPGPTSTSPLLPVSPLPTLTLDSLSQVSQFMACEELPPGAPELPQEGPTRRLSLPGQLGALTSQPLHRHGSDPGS

SMILES	hERG current change (%, negative = inhibition) at 10uM
O=[N+]([O-])c1ccc(N2CCN(c3cccc(Cl)c3)CC2)nc1	14%
CC(=O)Oc1ccc(CC(C(=O)O)N2C(=O)c3ccccc3C2=O)cc1 (centres unmarked)	16.2%
O=c1c2ccccc2oc2ccc(-c3ccc4[nH]ccc4c3)cc12	-2.53%
Cn1c(C(=O)Nc2ccc(Cl)cc2)cc2cc(Cl)ccc21	-7.13%
COc1ccc(C(=O)n2nc(-c3ccc(Cl)cc3)nc2N)cc1OC	8.57%
COc1cc(NC(=O)c2noc(C)c2[N+](=O)[O-])c(OC)cc1Cl	7.72%
Cc1cccc(OCC(=O)Nc2ccc(N3CCCC3)cc2)c1C	14.3%
O=c1[nH]c(=O)n(-c2cccc3ccccc23)c(O)c1/C=N/N1CCCCCC1	-4.13%
Cc1cc(C)c2sc(C)[n+](CCCS(=O)(=O)[O-])c2c1	15.6%
Cc1c(C(=O)N2CCCCC2C)sc2ncnc(N3CCc4ccccc4C3)c12 (centres unmarked)	-33.8%
O=C(NC1CC1)C1CCN(C2CCN(C(=O)c3ccc(C(F)(F)F)cc3)CC2)CC1	-56.4%
CC1(C)OC(=O)N(c2cccnc2)C1(C)O (centres unmarked)	11.3%
COc1ccccc1/C=N/NC(=O)CSc1ccc2ccccc2n1	24.6%
CCOC(=O)C1=C(COC(=O)C(C)(C)Oc2ccc(Cl)cc2)NC(=O)NC1C (centres unmarked)	-19.3%
Cc1nc2scc(-c3ccc(C(C)(C)C)cc3)c2c(=O)n1N	4.74%
CCc1c(O)nc(SCC(=O)Nc2ccccc2OC)[nH]c1=O	13.1%
N#Cc1nc(-c2ccccc2)oc1N1CCN(C(=O)c2ccco2)CC1	-75.7%
COc1ccccc1C1=NOC(Cn2c(NCC3CCCO3)nc3c2c(=O)n(C)c(=O)n3C)C1 (centres unmarked)	7.71%
CCN(c1ccccc1)S(=O)(=O)c1ccc(Cl)c(NC(=O)Nc2ccc(Cl)cc2C#N)c1	-3.67%
COc1ccc(-c2noc(N3CCCC(C(=O)Nc4cc(F)ccc4F)C3)n2)cc1 (centres unmarked)	-10.5%
CC(NC(=O)c1ccc(CS(C)(=O)=O)cc1)c1cccc2ccccc12 (centres unmarked)	10.1%
O=C(CNC(=O)c1ccc(Cl)cc1)Nc1ccccc1C(F)(F)F	12.6%

SMILES	hERG current change (%, negative = inhibition) at 10uM
O=C(C(Sc1ccccc1)c1ccc(Br)cc1)N1CCOCC1 (centres unmarked)	-29.5%
COc1ccc(N2C(=O)C3CCCN3C2c2ccccc2)cc1 (centres unmarked)	-0.765%
Cc1ccc(S(=O)(=O)N2CCC(C(=O)Nc3ccccc3N3CCCC3)CC2)cc1C	-0.74%
CC(C)OC(=O)CSc1nnc(-c2ccccn2)n1N	16%
O=C(Nc1ccccc1-c1nnn(CC(=O)N2CCCc3ccccc32)n1)c1ccco1	-20.8%
S=c1[nH]cc(-c2ccc(Cl)cc2)n1-c1ccccc1	-0.267%
O=C(CCCCCCN1C(=O)c2ccccc2C1=O)N1CCC(c2ccccc2)C1 (centres unmarked)	-39.7%
CC(C)[C@H](NC(=O)c1cc2cc(Cl)ccc2n1C)C(=O)N[C@@H](C(=O)O)c1ccccc1	15.9%
CCn1c(P(C)(=O)[O-])nc2cc(NC(=O)c3ccccc3F)ccc21.[K+]	23.2%
CCn1c(=O)c2cc(S(=O)(=O)NC3CCCCC3)ccc2n(CC)c1=O	-8.77%
CCOC(=O)/C=C/C(=O)Nc1ccc(Oc2ccccc2)cc1	5.06%
CCCCOc1ccc(CN2CCN(CCO)CC2)cc1	4.3%
O=S(=O)(CCc1nc2ccccc2s1)c1ccc(Cl)cc1	-2.67%
CCn1c(=O)c2c(nc3n2CCCN3CCc2ccccc2)n(C)c1=O	-21.2%
COc1ccc2c(=O)c3ccccc3oc2c1	-1.23%
NNS(=O)(=O)c1ccc(N2CCCC2=O)c([N+](=O)[O-])c1	21.8%
CCOC(=O)C1=CCC2c3c(c4ccccc4n3C)C(=O)C1N2C(=O)OC(C)(C)C (centres unmarked)	9.47%
O=C(O)c1cc(Cl)ccc1NC(=O)C1CCCO1 (centres unmarked)	0.306%
Cc1c(NC(=O)C(C)N2C(=O)c3ccccc3C2=O)c(=O)n(-c2ccccc2)n1C (centres unmarked)	12.8%
COc1cc(S(=O)(=O)N2CCN(c3ccccc3)CC2)ccc1F	20.5%
COc1ccc(Cc2nnc(NC(=O)c3cccc([N+](=O)[O-])c3C)s2)cc1	0.56%
O=c1[nH]c(N2CCN(c3ccccc3)CC2)nc2c1CCC2	1.59%
